Data reported in PubChem BioAssay AID743279 (National Center for Advancing Translational Sciences (NCATS), 2014).
Values joined by “and” are separate entries in the source; they are usually repeats but may differ in a detail not shown here. Identical values can stand only once. The campaign covered roughly 360,000 compounds. About 17,000 (4.7%) were called active. The shares of active, inactive and inconclusive entries below differ from those in the screen. Cut-off read from the data, not from the text of the source: active = activity change below about -50%; inconclusive = mostly about -30% to -49%; inactive = weaker than that.

Assay: qHTS for Inhibitors of Inflammasome Signaling: IL-1-beta AlphaLISA Primary Screen
Details: THP-1 LPS/ATP IL-1B secretion, 16 h; at 57.5 µM, stronger effect = lower value
From the text: Inflammasomes are a set of intracellular multi-protein complexes that enable autocatalytic activation of inflammatory caspases and drive the innate immune response to counter harmful agents. […] A qHTS assay, based on AlphaLISA technology, was developed to screen the Molecular Libraries Small Molecule Repository (MLSMR) to look for novel inflammasome inhibitors. The assay detects IL-1B using AlphaLISA anti-IL-1B acceptor and donor beads. A decreased emission signal, indicating reduced IL-1B secretion, is the desired outcome for this assay. NIH Chemical Genomics Center [NCGC] NIH Molecular Libraries Probe Centers Network [MLPCN] MLPCN Grant: MH095513 Assay Provider: Shyam Biswal Ph.D., Johns Hopkins University Immunity. 2012 Jul 27;37(1):85-95. PMID: 22819042 [2] Curr Pharm Des. 2012;18(16):2320-8. PMID: 22390695
Three microliters containing 3000 THP-1 cells were dispensed into the wells of solid, white, tissue culture treated Greiner 1,536-well plates. Library compounds and positive control, Glyburide, were pin-transferred (23 nL) by a Kalypsys pin-tool equipped with a 1,536-pin array, resulting in final compound concentration ranges of 2.5 nM to 57.5 uM. After 1 hr of cell culture incubation (37 °C, 5% CO2), 1 microL of 1 microg/mL lipopolysaccharide (250 ng/mL, final) and 5 mM ATP (1.25 mM, final) were added to stimulate the cells. After 16 hr of cell culture incubation with the compounds, 1.5 uL of anti-IL-1B acceptor beads (6 ug/mL, final) and biotinylated antibody (0.6 nM, final) were added to the plate, followed by a 1 hr incubation at ambient temperature. To detect the secreted IL-1B, 1.5 uL of AlphaLISA SA-Donor beads (24 ug/mL, final) were added, followed by 30 min of incubation in the dark at ambient temperature. The AlphaLISA signal was read by a PerkinElmer EnVision plate reader with an ultrasensitive luminescence detector and 1536 Plate HTS AlphaScreen aperture (excitation of 680nm and emission of 615nm).
% is set by controls: 0 for no effect and ±100 for the full control effect.

Activity change, inactive:
COc1cccc(NC(=O)CN(C)C(=O)c2ccc3c(c2)CC(c2ccccc2)OC3=O)c1 (stereo not given) -10%
COc1ccc(OC)c(S(=O)(=O)NC(=O)C2(C)CCN2C(=O)C2(c3ccc(Cl)cc3)CC2)c1 (stereo not given) 7.26%
CCSc1oc(-c2cccs2)nc1S(=O)(=O)c1ccccc1 0%
COCCn1c(SC(C)C(=O)NCC2CCCO2)nc2scc(-c3ccc(F)cc3)c2c1=O (stereo not given) 1.8%
O=C(Nc1nc(-c2ccccc2)cs1)c1ccc(=O)[nH]c1 -12.5%
COCCC(=O)N1CCCC(CCC(=O)NCc2ccc(F)c(F)c2)C1 (stereo not given) -0.373%
COc1ccc(/C=N/NC(=O)CN2CCSCC2)c(OC)c1 8.81%
Cc1ccc(NS(=O)(=O)c2cccc(C(=O)N3CCCCCC3)c2)cc1 -3.13%
COc1ccc(N2CCN(C(=O)C3CCCN(S(=O)(=O)c4ccc(F)cc4)C3)CC2)cc1 (stereo not given) -13.1%
Cc1nc2ncnn2c(Nc2ccc3c(c2)OCCO3)c1C 41.4%
COc1ccc(CC(=O)O/N=C(\N)Cc2cccc3ccccc23)cc1OC 23.1%
Cn1c(Cc2ccc3c(c2)OCO3)nnc1SCC(=O)N1CCc2ccccc2C1 0%
COc1cc(OC)c(C2=NOC(C(=O)NCc3cccs3)C2)cc1Cl (stereo not given) 12.9%
CCc1ccc(/C=C(\Cl)c2nc3cc(Cl)ccc3c(=O)[nH]2)cc1 -1.31%
Clc1ccccc1CNc1ncnc2nc[nH]c12 18.2%
CCOc1nc(C)cc(C)c1S(=O)(=O)c1cccc(Cl)c1 0%
COc1cc2c(cc1OC)C1=NC(=O)CN1C(SCc1ccc(C)cc1)=N2 9.87%

Activity change, inconclusive:
COc1cccc(S(=O)(=O)NCc2ccc(C(=O)Nc3cccc(Cl)c3)cc2)c1 -49.7%
O=C(/C=C/c1ccc2ccccc2c1)c1ccoc1 -43.7%
O=C(CSc1nnnn1-c1ccc(F)cc1)Nc1ccc(N2CCOCC2)c(Cl)c1 -31.9%
COCCNC(=O)/C(C#N)=C1\N=C(NC(=O)c2ccco2)c2ccccc21 -32.7%
CCCC1S/C(=N/N=C/c2ccc(OC)cc2)N(Cc2ccccc2)C1=O (stereo not given) -30.5%
O=C(NC1CCCC1)c1cc2ccccc2o1 -41.5%
Nc1ccc2c3c(ccc([N+](=O)[O-])c13)CC2 -42.3%
COc1ccc(Br)c(Cn2c(C)c(C(=O)NCc3ccc(F)cc3)sc2=O)c1 -43.9%
Cc1ccc(NC(=O)N(Cc2ccc3c(c2)OCO3)Cc2cc3cc4c(cc3[nH]c2=O)OCCO4)cc1 -49.9%
COc1cccc(C(=O)Nc2ccc3c(c2)CCCN3C(=O)c2cccs2)c1OC -39.2%
CN(C(=O)c1ccc(NC(=O)Cc2ccc(NC(=O)C3CCN(C(=O)C4CCC4)CC3)cc2)cc1)C1CC1 -47.7%
O=C(Nc1ccccc1N1CCN(C(=O)c2ccccc2)CC1)c1ccc(Cl)cc1 -38.5%
C[C@H](O)[C@@H]1C(=O)N2CCc3c([nH]c4ccccc34)[C@@H]2C[C@@H]1N(C)C(=O)Nc1cc(Cl)cc(Cl)c1 -40.7%
Cc1cccc(-c2cc(C(=O)Nc3ccncc3)c3ccccc3n2)c1 -38.4%
COc1ccc(NS(=O)(=O)c2ccc(O)c(NC(=O)c3cc4c(C)nn(-c5ccc(F)cc5)c4s3)c2)cc1 -44.6%
Cc1ccc(C2(C)NC(=O)N(CC(=O)N(Cc3ccccc3)C(C)(C)C)C2=O)cc1 (stereo not given) -35.4%
CCN(c1ccccc1)S(=O)(=O)c1cc(C(=O)Nc2ccc(Br)cc2)ccc1F -42.4%
CN1c2ccccc2-c2nc3ccccc3n2C1c1ccco1 (stereo not given) -34.7%
CCOc1ccc(S(=O)(=O)/N=C(/Nc2ccc(C)c(S(=O)(=O)N3CCOCC3)c2)c2ccccc2)cc1 -31.3%
Cc1noc(C)c1CSc1nc2ccccc2n1CCc1ccccc1 -38%
COc1ccc(NC(=O)C(CC(C)C)NC(=O)C2CCCCC2)c(OC)c1 (stereo not given) -33.4%
CCOc1ccc(S(=O)(=O)N(C)c2ccc(OCC(=O)NCC3CCCCC3)cc2)cc1 -30.5%
Cc1ccc(N(C(=O)c2snc(C(N)=O)c2N)C(C(=O)NCC2CCCO2)c2ccc3ncccc3c2)cc1 (stereo not given) -34.5%
Cc1ccc(C)c(Cn2c3ccccc3c3cnn(CC(=O)NCCCN4CCCCC4)c(=O)c32)c1 -39.3%
CC(=O)Nc1nc2nc(-c3ccccc3)cc(-c3ccccc3)n2n1 -38.2%
COc1ccc(Oc2c(C=O)c3ccccc3n2C)cc1 -42.6%
COc1ccc(Nc2nc(-c3ccccc3)c(C(=O)Nc3cccnc3)s2)cc1 -36.5%
COc1ccc(C2SCCN2S(=O)(=O)c2ccc(NC(C)=O)cc2)cc1 (stereo not given) -31.7%
COc1cc(C(O)c2nc(-c3ccc(F)c(Cl)c3)cs2)ccc1F (stereo not given) -31.6%
CN(c1cccc(NC(=O)COc2ccc(Cl)cc2Cl)c1)S(C)(=O)=O -34.4%
O=C(N/N=C/c1ccc(Cl)cc1Cl)c1cccc(N2CCCC2=O)c1 -35.6%
Cc1ccc(NC(=O)CN2CCN(Cc3ccccc3)CC2)c(Br)c1 -32.6%
Brc1ccc2c(c1)C(C1=NCCN1)c1ccccc1CS2 (stereo not given) -30.6%
CC(CN1C(C)CCCC1C)OC(=O)c1ccc(Cl)cc1 (stereo not given) -47.3%
Brc1cccc(OCCCNC2CCCC2)c1 -47.8%
O=C(CSc1nnc(CN2CCCC2)n1-c1ccc(F)cc1)c1ccc2c(c1)OCO2 -48.9%
COc1ccccc1CC(=O)N1CCN(c2ccc([N+](=O)[O-])cc2)CC1 -45.6%
S=C(c1ccc(-c2ccc(Cl)c(Cl)c2)o1)N1CCOCC1 -43.3%
COc1ccc(Oc2ccc(NC(=O)c3ccccc3C)cc2)cc1 -34.7%
O=C(COc1ccc(Cl)cc1Br)Nc1cccc(S(=O)(=O)N2CCCC2)c1 -45%
COc1ccc(OC)c(NC(=O)COc2ccc(S(=O)(=O)NC(C)C)cc2)c1 -34.8%
C[C@@H]1CN([C@@H](C)CO)C(=O)Cc2cc(NC(=O)Nc3ccc(C(F)(F)F)cc3)ccc2O[C@@H]1CN(C)S(=O)(=O)c1ccc(Cl)cc1 -42%
COC(=O)c1cc2c(N)c(C(=O)c3ccccc3)sc2nc1C(OC)OC -43.1%
CCN(CC)CCCN(Cc1cc2cc(OC)c(OC)cc2[nH]c1=O)C(=O)Nc1ccccc1 -34.6%
O=C1NC[C@@H](CCCCN2C[C@H](Cc3ccc(O)cc3)N(CCc3ccccc3)C(=O)C2=O)N(CCC2CCCCC2)C1=O -45.1%
Cc1ccc(-n2nc(-c3ccc(N)cc3)cc2N)cc1 -38.5%
OC(CN1CCN(Cc2ccc3c(c2)OCO3)CC1)c1c[nH]c2ccccc12 (stereo not given) -48.3%
CCOc1ccc(C2=C(C=C(C#N)C#N)C(c3ccccc3)c3ccccc3O2)cc1 (stereo not given) -34.3%
Cc1nn(C)cc1/C=C/C(=O)c1ccccc1 -34.5%
COC(=O)c1c(-c2cccs2)csc1NC(=O)CN1CCOCC1 -35.9%
O=C(Nc1nc(-c2ccc(S(=O)(=O)N3CCOCC3)cc2)cs1)c1ccccc1 -43% and -45%
O=C1CCCN1CCCNc1nc(NCc2ccccc2)nc2ccsc12 -35.6%

Activity change, active:
COc1ccccc1CN1C2CCCC1CC(NC(=O)/C=C/c1ccccc1)C2 (stereo not given) -76.6%
CCN(CC)C(=O)Oc1ccc2c(=O)c(-c3ccccc3)coc2c1 -54%
OC(COc1ccc2c(c1)CCC2)CN1CCN(c2ccccc2F)CC1 (stereo not given) -52.6%
O=C(NNc1ccccc1[N+](=O)[O-])Nc1ccc(Cl)c(Cl)c1 -92.8%
Cc1ccc(N(NC(=O)C(O)(c2ccccc2)c2ccccc2)C(=O)CCl)cc1 -97.7%
O=c1[nH]c(-c2ccc(Cl)cc2)cs1 -55.2%
COc1ccc(C(=O)CSc2nn3c(=O)c(C(C)(C)C)nnc3s2)cc1 -58%
Cc1cc(=O)oc2ccc(OCC(=O)N(Cc3ccc(F)cc3)Cc3ccco3)cc12 -61.7%
CC1=C(C(=O)OC2CCCCCCC2)C(c2ccc(O)cc2)NC(=O)N1 (stereo not given) -54.6%
CC(Cl)C(=O)c1ccc2c(c1)CCN2C(=O)C1CC1 (stereo not given) -62.7%
COC(=O)CCn1c(C)cc(C(=O)COc2ccccc2C(N)=O)c1C -99.3%
Cc1ccc(Nc2nc(N)c(C#N)c(CC#N)c2C#N)cc1 -97%
Cc1[nH]c2ccccc2c1C(=O)/C=C/c1ccccc1Cl -105%
c1ccc(-c2oc3ncnc(NCCCn4ccnc4)c3c2-c2ccccc2)cc1 -78.7%
CCOC(=O)COc1ccc(S(=O)(=O)c2ccc(OCC(=O)OCC)cc2)cc1 -92%
Cc1ccc(C)c(Cn2c3ccccc3c3cnn(CC(=O)NCCCN4CCOCC4)c(=O)c32)c1 -55.4%
